Source: patent publication EP1114151B1, “G PROTEIN-COUPLED RECEPTOR ANTAGONISTS” (Hopital Sainte-Justine, priority 1998, dated 2011)
Not every detail of the peptide structures is certain; ends, links or a residue may be inferred. Some entries repeat one wording, which the source may state once for all of them. Square brackets hold non-standard residues; d marks the D form. Ends that are not written are not given here. Peptide text beside a SMILES is read from it. dCha = N[C@H](CC1CCCCC1)C(=O)O

How the values were obtained:
[1] = test system: porcine uterine strips; assay: porcine uterine strip ex vivo contraction assay (basal and PGF2α-induced); conditions: 100 µM peptide; for reduction in uterine contraction: 30 min, all concentrations of PGF2α tested (10^-9 to 10^-6 M), Fig. 3B; for spontaneous (basal) uterine contractions: Fig. 3A
[2] = test system: FP receptor; assay: porcine eyecup model of ex vivo vasomotricity assay, PGF2α-induced constriction of retinal microvessels; conditions: for %Vasomotor response (of constriction): 100 µM peptide added 30 min before 10^-7 M PGF2α, relative to maximal constriction in the absence of peptide; for % inhibition of maximal max. response: 100 µM peptide, 10^-7 M PGF2α, calculated as 100 - per cent vasomotor response; for vasomotor responses, dose response of PGF2α on vascular diameter: peptide 100 µM, even at PGF2α concentrations exceeding 1µM, Fig. 2B; for change of inhibitory activity relative to the parent peptide (in words): peptides at 100 µM, compared with PCP-13 (PCP-13 and PCP-11 with PCP-8, PCP-12 with PCP-10)
Description: In order to see if the peptides could inhibit FP function using an ex vivo model, we chose porcine eyecup model, an ex vivo assay of vascular constriction in porcine retinas which we previously described and validated (Li et al., 1996 J. Pharmacol. Expt. Therapeut. 278: 370-377; Li et al., 1997 Am. J. Physiol. 273: R1283-90; Abran et al., 1997 Am. J. Physiol. 272: R995-1001). Since FP receptor densities in newborn vasculature are minimal due to down regulation by high levels of circulating prostaglandins in the perinatal period, the newborn pigs were treated with a prostaglandin synthetase blocker, ibuprofen (30 mg/Kg of bodyweight/ 8 h for 24 h) to increase the density of the receptors as well as their vasomotor effects. By inhibiting circulating prostaglandins; we were able to show potent inhibition of FP receptor-mediated second messenger synthesis as well as FP-mediated vascular constriction in this eyecup model.
The preparations were allowed to stabilize for 30 min.
Vascular diameter was recorded before and 10 min following the topical application of the agent.
Small letters indicate L-amino acids and capital letters indicate D- amino acids. I = isoleucine; L= leucine; G =glycine; H=histidine, R=Arginine; D=Aspartic acid; Y=Tyrosine; […]; A-Alanine; W= Tryptophan; E-Glutamic acid; F= Phenyl alanine; Q=Glutamine; N=Aspargine; P=Proline; S=Serine; X=Cyclohexyl alanine.

[3] = test system: human FP receptor; assay: ligand-induced phosphoinositide hydrolysis (inositol phosphate synthesis) in HEK293 cells expressing FP receptor; type: cell-based; conditions: peptide at 100 µM, 1 µM PGF2α
[4] = test system: TP receptor; assay: porcine eyecup model of ex vivo vasomotricity assay, constriction by TxA2 mimetic U46619 (selectivity); conditions: peptide 100 µM; for vasoconstriction produced by thromboxane A2: concentration response of U46619, Fig. 2C
[5] = test system: bovine myometrium; assay: bovine uterine strip ex vivo basal contraction assay; conditions: peptide at 100 µM, Fig. 4

Compound	%Vasomotor response (of constriction) [2]	% inhibition of maximal max. response [2]	change of inhibitory activity relative to the parent peptide (in words) [2]	other results
CC[C@H](C)[C@H](N)C(=O)N[C@@H](CC(C)C)C(=O)NCC(=O)N[C@@H](Cc1c[nH]cn1)C(=O)N[C@@H](CCCNC(=N)N)C(=O)N[C@@H](CC(=O)O)C(=O)N[C@@H](Cc1ccc(O)cc1)C(=O)N[C@@H](CCCCN)C(=O)O [PCP-8, ilghrdyk]	50.0%	50.0%		reduction in uterine contraction [1]: More than 60%; spontaneous (basal) uterine contractions [1]: reduced the force of basal contraction; vasomotor responses, dose response of PGF2α on vascular diameter [2]: abrogated the vasomotor responses; inhibition of inositol phosphate synthesis initiated by the action of PGF2α on FP receptor [3]: potently inhibited inositol phosphate synthesis; vasoconstriction produced by thromboxane A2 [4]: had no effect on vasoconstriction
CC[C@@H](C)[C@@H](N)C(=O)N[C@H](CC(C)C)C(=O)NCC(=O)N[C@H](Cc1c[nH]cn1)C(=O)N[C@H](CCCNC(=N)N)C(=O)N[C@H](CCC(=O)O)C(=O)N[C@H](Cc1ccc(O)cc1)C(=O)N[C@H](CCCCN)C(=O)O [PCP-13.12] (H-[dI][dL]G[dH][dR][dE][dY][dK]-OH)			loss of half of the inhibitory activity	
CC[C@@H](C)[C@@H](N)C(=O)N[C@H](CC(C)C)C(=O)NCC(=O)N[C@H](CC1CCCCC1)C(=O)N[C@H](CCCNC(=N)N)C(=O)N[C@H](CC(=O)O)C(=O)N[C@H](Cc1ccc(O)cc1)C(=O)N[C@H](CCCCN)C(=O)O [PCP-13.24, ILGXRDYK] (H-[dI][dL]G[dCha][dR][dD][dY][dK]-OH)	6.2%	93.8%	did not result in significant reduction of peptide inhibitory potency	
CC[C@@H](C)[C@@H](NC(=O)[C@@H](CO)NC(=O)[C@@H](CS)NC(=O)[C@@H](CC(C)C)NC(=O)[C@H](NC(=O)[C@@H](CC(N)=O)NC(=O)[C@H](N)CO)C(C)C)C(=O)N[C@H](Cc1ccccc1)C(=O)O [PCP-15]	11.9%	88.1%		
CC[C@@H](C)[C@@H](N)C(=O)N[C@H](CC(C)C)C(=O)N[C@@H](C)C(=O)N[C@H](Cc1c[nH]cn1)C(=O)N[C@H](CCCNC(=N)N)C(=O)N[C@H](CC(=O)O)C(=O)N[C@H](Cc1ccc(O)cc1)C(=O)N[C@H](CCCCN)C(=O)O [PCP-13.8, ILaHRDYK]	46.8%	53.2%	loss of activity	
CC[C@@H](C)[C@@H](N)C(=O)N[C@H](CC(C)C)C(=O)NCC(=O)N[C@H](Cc1c[nH]cn1)C(=O)N[C@H](CCCNC(=N)N)C(=O)N[C@H](CC(=O)O)C(=O)N[C@H](Cc1ccc(O)cc1)C(=O)O [PCP-13.15] (H-[dI][dL]G[dH][dR][dD][dY]-OH)			complete loss of activity	
CC(C)C[C@@H](NC(=O)[C@@H](CC(C)C)NC(=O)[C@@H](Cc1ccc(O)cc1)NC(=O)[C@@H](Cc1ccccc1)NC(=O)[C@@H](CCCNC(=N)N)NC(=O)[C@@H](CC(=O)O)NC(=O)[C@@H](CCC(N)=O)NC(=O)[C@H](N)Cc1ccc(O)cc1)C(=O)O [PCP-14]	36.0%	64.0%		
CC[C@@H](C)[C@@H](N)C(=O)N[C@H](CC(C)C)C(=O)NCC(=O)N[C@H](Cc1ccccc1)C(=O)N[C@H](CCCNC(=N)N)C(=O)N[C@H](CC(=O)O)C(=O)N[C@H](Cc1ccc(O)cc1)C(=O)N[C@H](CCCCN)C(=O)O [PCP-13.11]	13.0%	87.0%	did not result in significant reduction of peptide inhibitory potency	
CC[C@@H](C)[C@@H](N)C(=O)N[C@H](CC(C)C)C(=O)NCC(=O)N[C@H](Cc1ccc(O)cc1)C(=O)N[C@H](CCCNC(=N)N)C(=O)N[C@H](CC(=O)O)C(=O)N[C@H](Cc1ccc(O)cc1)C(=O)N[C@H](CCCCN)C(=O)O [PCP-13.23] (H-[dI][dL]G[dY][dR][dD][dY][dK]-OH)			significant reduction of peptide inhibitory potency	
DRFYLL [PCP-12]			significant reduction in the inhibitory action	
WEDRFYLL [PCP-10, wedrfyll]	20.0%			basal tone (contractile state) of the uterine muscle [5]: reversed the basal tone; relaxation produced by the peptide after addition of PGF2α ([5]; PGF2α up to 10µM): did not affect the relaxation produced by PCP-10; reduction in uterine contraction [1]: > 80%; spontaneous (basal) uterine contractions [1]: reduced spontaneous as well as PGF2α-induced contractions; vasomotor responses, dose response of PGF2α on vascular diameter [2]: abrogated the vasomotor responses; basal tone (diameter of the microvessel) ([2]; peptide alone, no agonist, Fig. 2A): had no effect on the basal tone; PGF2α-mediated vasoconstriction ([2]; peptide at 100 µM, 1 µM PGF2α, Fig. 2A): markedly inhibited PGF2α-mediated vasoconstriction; inhibition of inositol phosphate synthesis initiated by the action of PGF2α on FP receptor [3]: potently inhibited inositol phosphate synthesis; vasoconstriction effected by TxA2 mimetic, U46619 ([4]; 1 µM U46619, Fig. 2A): had no effect on the vasoconstriction; vasoconstriction produced by thromboxane A2 [4]: had no effect on vasoconstriction
CC[C@@H](C)[C@@H](N)C(=O)N[C@H](CC(C)C)C(=O)NCC(=O)N[C@H](Cc1c[nH]cn1)C(=O)N[C@H](CCCNC(=N)N)C(=O)N[C@H](CC(=O)O)C(=O)N[C@H](Cc1ccc(O)cc1)C(=O)N[C@H](CCCCN)C(=O)O [PCP-13]			increased the inhibitory potency dramatically	
GHRDYK [PCP-11]			significant reduction in the inhibitory action	
